Patent publication US9457029B2, “Treatment of genotyped diabetic patients with DPP-IV inhibitors such as linagliptin” (Boehringer Ingelheim International GmbH, priority 2009, dated 2016)
Like-named read-outs stand apart in the source and are kept apart here.

Key:
[1] = system: Japanese patients with type 2 diabetes mellitus; test: 12-week placebo-controlled study of linagliptin monotherapy in Japanese patients; assay type: in vivo, human; settings: LI 5 mg, 12 weeks
Experimental: Of those; 9.4%, 8.8% and 10.0%, respectively, are assessed as being drug-related. […] Body weight is unchanged with both LI 5 mg and 10 mg, −0.39 and −0.06 kg, respectively, which is not sigificantly different vs. PBO (−0.04 kg).

[2] = system: Japanese patients with type 2 diabetes mellitus; settings: week 26

Compound: CC#CCn1c(N2CCC[C@@H](N)C2)nc2c1c(=O)n(Cc1nc(C)c3ccccc3n1)c(=O)n2C [linagliptin, 1-[(4-methyl-quinazolin-2-yl)methyl]-3-methyl-7-(2-butyn-1-yl)-8-(3-(R)-amino-piperidin-1-yl)-xanthine]
- proportion of patients experiencing at least one adverse event (AE) [1]: 56.0%
- difference of adjusted mean change from baseline in HbA1c vs. VB ([2]; LI 5 mg qd): −0.32%
- difference of adjusted mean change from baseline in HbA1c vs. VB ([2]; LI 10 mg qd): −0.39%
